# Source: PubChem BioAssay AID485364 (National Center for Advancing Translational Sciences (NCATS), 2010)
# In all, about 360,000 compounds went through this assay and about 11,000 (3.1%) were called active. Inconclusive results, whose numbers are uncertain, are shown with a selection of clear calls. Calls come from the whole dose curve; as a rule, active = well fitted inhibition curve with a large enough effect; inconclusive = small, poorly fitted or top-dose-only effect; inactive = no such curve, though single readings can be large or run the other way. No potency is given beside an inconclusive call; the fits are too rough.
# Biological target: Schistosoma mansoni thioredoxin glutathione reductase (TGR) (UniProt Q962Y6)
# Test: qHTS Assay for the Inhibitors of Schistosoma Mansoni Peroxiredoxins; note: nearly all actives have a fitted effect of over 60% in size
# Conditions: purified TGR, DTNB reduction, TNB absorbance 405 nm; series mostly up to 114 µM
# How it was run: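 TGR 20 nM + NADPH 100 uM (dispensed conc.), cpd preinc 15 min RT; start with NADPH (500 uM addition) then DTNB (15 mM addition). Kinetic TNB absorbance, 405 nm filter. Four-parameter Hill fit across titration.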
# Potency is the fitted concentration of half-maximal effect; tags give direction and shape of the fitted curve.
row,SMILES,Potency
1,CCCCn1c(SCC(=O)NC(C)(C)C)nnc1-c1ccco1,"inconclusive [inhibitor, single point]"
2,CCCCC(=O)Nc1ccc2oc(-c3ccncc3)nc2c1,inactive
3,CC1(c2ccccc2Cl)NC(=O)N(CC(=O)NCCC2=CCCCC2)C1=O (stereo not drawn),inactive
4,O=S1(=O)C=C(Sc2nc3cc(Cl)ccc3o2)c2ccccc21,active: 1.58 µM
5,CCOc1ccc(NC(=O)CSc2oc(-c3ccco3)nc2S(=O)(=O)c2ccc(Cl)cc2)cc1,"inconclusive [inhibitor, partial curve]"
6,CC1=C(C#N)c2nc(N)c(C#N)c(C)c2/C1=C\c1ccc(-c2ccccc2C(=O)O)o1,active: 25.1 µM
7,Fc1ccc(CNC(=S)Nc2ccccc2F)cc1,"inconclusive [inhibitor, single point]"
8,CCN(CC)CCN1C(=O)c2oc3ccccc3c(=O)c2C1c1ccc(F)cc1 (stereo not drawn),"inconclusive [inhibitor, partial curve, poor fit]"
9,CN1CCC(N(C)CC(=O)Nc2cccc(Oc3ccccc3)c2)CC1,"inconclusive [inhibitor, single point]"
10,CC(C)n1cc(CN2CCCC(C(=O)Nc3cccc(-c4cc5ccccc5[nH]4)c3)C2)cn1 (stereo not drawn),inactive
11,CN(C)C(=O)c1c(NC(=O)c2ccccc2)sc2c1CCC2,"inconclusive [inhibitor, full curve]"
12,Cc1cccc(N2CCN(C(=O)C3CCN(S(=O)(=O)Cc4ccccc4)CC3)CC2)c1C,inactive
13,O=C(c1ccc2c(=O)n3c(nc2c1)CCCCC3)N1CCN(c2ccccc2)CC1,inactive
14,O=C(O)c1cc(Cl)ccc1-c1ccc(/C=C/c2cc(C(F)(F)F)[nH]c(=O)n2)o1,"inconclusive [inhibitor, full curve, poor fit]"
15,CCn1cc(C(=O)Nc2ncccc2O)c(=O)c2cc(F)c(N3CCN(C(=O)c4ccco4)CC3)cc21,"inconclusive [inhibitor, partial curve]"
16,Cc1occc1C(=O)NC(C)C(C)(C)C (stereo not drawn),"inconclusive [inhibitor, partial curve]"
17,COc1ccc(CCN2CCCC(CN(C)C(=O)c3ccoc3)C2)cc1 (stereo not drawn),inactive
18,COC(=O)CCC(=O)OC1(C)C(=O)C2=CN(CCN3CCOCC3)C(c3ccc(OC)cc3)=CC2=C(Br)C1=O (stereo not drawn),"inconclusive [inhibitor, partial curve]"
19,NC(=O)CCCCC(=O)OCCCc1cccs1,"inconclusive [inhibitor, single point]"
20,CCOC(=O)CSC1=C(C#N)C(c2ccc(OC)cc2)C2=C(CC(C)(C)CC2=O)N1 (stereo not drawn),"inconclusive [inhibitor, partial curve]"
21,CCC(=O)NC(=S)Nc1cccc(NC(=O)c2ccccc2)c1,"inconclusive [inhibitor, partial curve, poor fit]"
22,O=C(CN(C(=O)Cn1nnc(-c2ccccc2F)n1)c1cnc2ccccc2c1)NCC1CCCO1 (stereo not drawn),"inconclusive [inhibitor, single point]"
23,CC1CN(C(=O)Nc2ccc(C(=O)NCCc3ccc(Cl)cc3)cc2)c2ccccc2S1 (stereo not drawn),inactive

row,SMILES,Potency
1,COCCn1c(C)cc(O)c(C(c2ccc(OC)cc2)N2CCCCC2)c1=O (stereo not drawn),"inconclusive [inhibitor, full curve]"
2,Cc1cc(/C=C2\C(=O)NC(=O)N(c3ccc(Br)cc3)C2=O)c(C)n1C,"inconclusive [inhibitor, full curve]"
3,CC(=O)C1=C(c2cccc([N+](=O)[O-])c2)N(C(C)=O)n2c(C)nnc2S1,active: 22.4 µM
4,Cc1cccc(C(=O)n2nc(-c3ccco3)nc2NCc2ccccc2)c1,active: 35.5 µM
5,Cc1cc(C)c(S(=O)(=O)ON2C(=O)c3ccccc3C2=O)cc1C,active: 0.891 µM
6,CC(C)=C1SC(N2CCN(c3ccc(Cl)cc3)CC2)=NC1=O,"inconclusive [inhibitor, partial curve]"
7,CCOc1cc(N2CCOCC2)c(OCC)cc1NC(=O)CSc1ncn[nH]1,"inconclusive [inhibitor, partial curve]"
8,Cc1cccc(Nc2nc(-c3ccc(O)c(O)c3)cs2)n1,"inconclusive [inhibitor, full curve]"
9,COc1cc(OC)cc(C(=O)Nc2ccc(NC(=O)c3ccco3)c(C)c2)c1,active: 39.8 µM
10,Oc1c(Br)cc(C2N=C(c3ccccc3)NO2)cc1Br (stereo not drawn),active: 50.1 µM
11,Cc1ccc(C2NC(=O)NC(O)(C(F)(F)F)C2C(=O)c2cccs2)o1 (stereo not drawn),"inconclusive [inhibitor, partial curve]"
12,Cc1ccc(NC(=O)CSc2sc3c(O)cc(=O)[nH]c3c2C#N)cc1C,"inconclusive [inhibitor, partial curve]"
13,Nc1cc(-c2nn[nH]n2)ccc1F,"inconclusive [inhibitor, full curve, poor fit]"
14,Cc1cccc(C)c1Nc1nnc(SCC(=O)NCc2cccs2)s1,inactive
15,Cc1cccc2nc(-c3ccco3)oc(=O)c12,"inconclusive [inhibitor, partial curve]"
16,COc1cc(OC)c(NC(=O)c2nn(C)c3c2COc2ccccc2-3)cc1Cl,active: 0.708 µM
17,Cc1[nH]n(-c2ccccc2)c(=O)c1C=Nc1cccc(F)c1,inactive
18,CCCN(CCC)CCCNC(=S)Nc1ccc2nc(N3CCCC3)cc(C)c2c1,active: 44.7 µM
19,CCN(CC(=O)N1CCOCC1)S(=O)(=O)c1ccc(Cl)cc1,"inconclusive [inhibitor, full curve, poor fit]"
20,Cc1cccc(N2C(=O)CC(N(O)c3ccccc3)C2=O)c1 (stereo not drawn),"inconclusive [inhibitor, full curve]"
21,Cc1ccc(S(=O)(=O)N(Cc2ccccc2)c2ccccc2C(=O)NCc2ccco2)cc1,"inconclusive [inhibitor, partial curve, poor fit]"
22,CCOc1ccccc1/C=c1\sc2nc(-c3ccco3)nn2c1=O,"inconclusive [inhibitor, full curve]"
23,Cc1c(C(=O)O)sc(=S)n1-c1ccc(Cl)cc1,inactive

row,SMILES,Potency
1,CC(=O)n1cc([C@H]2C=C(C(=O)N3CCN(Cc4ccc5c(c4)OCO5)CC3)O[C@@H](OCCCCO)C2)c2ccccc21,"inconclusive [inhibitor, partial curve]"
2,CN(CCN1CCc2ccccc2C1)Cc1nc(-c2ccc3c(c2)OCO3)no1,"inconclusive [inhibitor, partial curve]"
3,COc1ccc(CN2CCN(C3CCC3)CC2CCO)c(C)c1C (stereo not drawn),inactive
4,Cc1c(NC(=O)c2cnn3c(C(F)(F)F)cc(-c4ccco4)nc23)c(=O)n(-c2ccccc2)n1C,"inconclusive [inhibitor, single point]"
5,COc1ccc(C(CNC(=O)Cc2ccccc2)N2CCCCC2)cc1 (stereo not drawn),inactive
6,C=CC(=O)NC(C)(C)Cc1ccccc1,"inconclusive [inhibitor, single point]"
7,CC1(C)Cc2c(C#N)c(SCCO)nc(N3CCOCC3)c2CO1,inactive
8,Cc1cccc(C)c1N1C(=O)[C@@H]2C(c3ccccc3Cl)=NO[C@@H]2C1=O,"inconclusive [inhibitor, partial curve]"
9,Cc1ccc(-n2c(-c3ccco3)nc3nc4ccccc4nc32)cc1F,"inconclusive [inhibitor, partial curve]"
10,COc1ccc(N2CCN(C(=O)COC(=O)c3cnccn3)CC2)cc1,"inconclusive [inhibitor, full curve, poor fit]"
11,Cc1c(C#N)c(O)[nH]c(=O)c1N=Nc1ccc(S(N)(=O)=O)cc1,"inconclusive [inhibitor, partial curve]"
12,Cc1cc(C(=O)CSc2nnc(-c3cccnc3)n2-c2ccccc2F)c(C)n1C,"inconclusive [inhibitor, partial curve]"
13,O=C(CN1C(=O)S/C(=C\C=C\c2ccccc2)C1=O)N1CCOCC1,"inconclusive [inhibitor, partial curve]"
14,c1ccc2[nH]c(SN3CCOCC3)nc2c1,"inconclusive [inhibitor, partial curve]"
15,C=CCOC(=O)C1=C[C@@H](c2csc3ccccc23)C[C@@H](OCc2ccc(CO)cc2)O1,"inconclusive [inhibitor, partial curve]"
16,O=C(O)C1=C[C@H](c2ccc(F)cc2)C[C@H](OCc2ccc(CO)cc2)O1,active: 35.5 µM
17,CN1CCN(C(=O)CSc2nc3ccc(NC(=O)c4ccccc4F)cc3s2)CC1,inactive
18,O=C(O)CC1OCC=C2CN3CCC45C6=CC(=O)C(=O)C([N+](=O)[O-])=C6NC4C1C2CC35 (stereo not drawn),"inconclusive [inhibitor, partial curve]"
19,O=C(c1ccc(Cl)cc1)[C@@H]1[C@@H]2C(=O)N(c3cccc4ccccc34)C(=O)[C@@H]2C2c3ccccc3C=NN21 (stereo partly drawn),"inconclusive [inhibitor, single point]"
20,CCc1ccc(CN(C)C(=O)CC2C(=O)NCCN2Cc2ccoc2)cc1 (stereo not drawn),active: 17.8 µM
21,Cc1cc(NS(=O)(=O)c2ccc(Cl)cc2)nn1CC(=O)NCc1ccco1,"inconclusive [inhibitor, partial curve]"
22,O=C(COC(=O)/C=C/c1cccc(Cl)c1)NCCc1ccccc1,"inconclusive [inhibitor, single point]"
